This is an account of results in publication PMC12820563.

This is one part of the list. The list includes weakly bound sequences.

The target of this test is T1, MBP-FoxP3dN (UniProt Q99JB6).
T1 sequence: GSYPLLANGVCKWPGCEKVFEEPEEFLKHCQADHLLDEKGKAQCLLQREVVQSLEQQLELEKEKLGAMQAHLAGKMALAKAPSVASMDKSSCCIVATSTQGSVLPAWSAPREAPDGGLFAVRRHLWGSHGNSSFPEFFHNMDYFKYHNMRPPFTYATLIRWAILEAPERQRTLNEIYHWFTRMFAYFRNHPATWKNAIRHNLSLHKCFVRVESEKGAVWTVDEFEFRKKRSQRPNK
Nature of the test: PD-seq (MBP pull-down with sequencing). Particulars: 20 mM Tris-HCl pH 7.5, 100 mM NaCl, 1.5 mM MgCl2, 0.4 uM protein, 0.1 uM dsDNA library, 30 min, room temperature, amylose pull-down; high values mean tight binding; double strand, one strand shown.
Take “GATGATTGTTCTCCCAGCTGATGAATTTGTTAACTCGAGTAAACAAATTTTCCTAATCTTTCTGTTCAAGCGCCATCTAC”: the binding signal (RPM ratio (pull-down/input)) is 3.94.
Then “GATGATTGTTCTCCCAGCTGATGAATTCTGGCACTCGAGTAAACAAATTTTCCTAATCTTTCTGTTCAAGCGCCATCTAC”, with 0.445; and “GATGATTGTTCTCCCAGCTGATGAATTAATGTATTCGAGTAAACAAATTTTCCTAATCTTTCTGTTCAAGCGCCATCTAC”, with 2.84; and “GATGATTGTTCTCCCAGCTGATGAATTAGCACCATCGAGTAAACAAATTTTCCTAATCTTTCTGTTCAAGCGCCATCTAC”, with 0.51.
With “GATGATTGTTCTCCCAGCTGATGAATTATTCATATCGAGTAAACAAATTTTCCTAATCTTTCTGTTCAAGCGCCATCTAC”, the binding signal (RPM ratio (pull-down/input)) was found to be 0.511.
For the sequence “GATGATTGTTCTCCCAGCTGATGAATTGACGGGGTCGAGTAAACAAATTTTCCTAATCTTTCTGTTCAAGCGCCATCTAC”, the binding signal (RPM ratio (pull-down/input)) turned out to be 0.259.
Then “GATGATTGTTCTCCCAGCTGATGAATTTGGAATTTCGAGTAAACAAATTTTCCTAATCTTTCTGTTCAAGCGCCATCTAC”, with 1.36; and “GATGATTGTTCTCCCAGCTGATGAATTACCGCCGTCGAGTAAACAAATTTTCCTAATCTTTCTGTTCAAGCGCCATCTAC”, with 0.568.
Next, “GATGATTGTTCTCCCAGCTGATGAATTCCCAGGTTCGAGTAAACAAATTTTCCTAATCTTTCTGTTCAAGCGCCATCTAC”: 0.203; “GATGATTGTTCTCCCAGCTGATGAATTATAGTATTCGAGTAAACAAATTTTCCTAATCTTTCTGTTCAAGCGCCATCTAC”: 1.43.
Then “GATGATTGTTCTCCCAGCTGATGAATTTGGCAGTTCGAGTAAACAAATTTTCCTAATCTTTCTGTTCAAGCGCCATCTAC”, with 0.997; and “GATGATTGTTCTCCCAGCTGATGAATTCCTAGAGTCGAGTAAACAAATTTTCCTAATCTTTCTGTTCAAGCGCCATCTAC”, with 0.209; and “GATGATTGTTCTCCCAGCTGATGAATTCAAGAGCTCGAGTAAACAAATTTTCCTAATCTTTCTGTTCAAGCGCCATCTAC”, with 0.186.
For “GATGATTGTTCTCCCAGCTGATGAATTTCGAATCTCGAGTAAACAAATTTTCCTAATCTTTCTGTTCAAGCGCCATCTAC”, the binding signal (RPM ratio (pull-down/input)) was determined as 1.5.
Then “GATGATTGTTCTCCCAGCTGATGAATTCGAACAATCGAGTAAACAAATTTTCCTAATCTTTCTGTTCAAGCGCCATCTAC”, with 0.331; and “GATGATTGTTCTCCCAGCTGATGAATTCGTTGAATCGAGTAAACAAATTTTCCTAATCTTTCTGTTCAAGCGCCATCTAC”, with 0.385.
Turning to “GATGATTGTTCTCCCAGCTGATGAATTTAGGGCATCGAGTAAACAAATTTTCCTAATCTTTCTGTTCAAGCGCCATCTAC”, the binding signal (RPM ratio (pull-down/input)) worked out at 0.955.
As for “GATGATTGTTCTCCCAGCTGATGAATTTGGCAATTCGAGTAAACAAATTTTCCTAATCTTTCTGTTCAAGCGCCATCTAC”, the binding signal (RPM ratio (pull-down/input)) is 4.
Consider “GATGATTGTTCTCCCAGCTGATGAATTTAAAGGATCGAGTAAACAAATTTTCCTAATCTTTCTGTTCAAGCGCCATCTAC”, for which the binding signal (RPM ratio (pull-down/input)) is 0.18.
For the sequence “GATGATTGTTCTCCCAGCTGATGAATTATTAATGTCGAGTAAACAAATTTTCCTAATCTTTCTGTTCAAGCGCCATCTAC”, the binding signal (RPM ratio (pull-down/input)) was found to be 0.506.
“GATGATTGTTCTCCCAGCTGATGAATTTGCTCTGTCGAGTAAACAAATTTTCCTAATCTTTCTGTTCAAGCGCCATCTAC”: the binding signal (RPM ratio (pull-down/input)) came to 0.443.
On to “GATGATTGTTCTCCCAGCTGATGAATTCTACATTTCGAGTAAACAAATTTTCCTAATCTTTCTGTTCAAGCGCCATCTAC”, for which the binding signal (RPM ratio (pull-down/input)) amounted to 0.383.
Next, “GATGATTGTTCTCCCAGCTGATGAATTCGCGTCCTCGAGTAAACAAATTTTCCTAATCTTTCTGTTCAAGCGCCATCTAC”: 1.19; “GATGATTGTTCTCCCAGCTGATGAATTAGGTCGTTCGAGTAAACAAATTTTCCTAATCTTTCTGTTCAAGCGCCATCTAC”: 0.522; “GATGATTGTTCTCCCAGCTGATGAATTAGATTATTCGAGTAAACAAATTTTCCTAATCTTTCTGTTCAAGCGCCATCTAC”: 1.87.
On to “GATGATTGTTCTCCCAGCTGATGAATTCTTGGTGTCGAGTAAACAAATTTTCCTAATCTTTCTGTTCAAGCGCCATCTAC”, for which the binding signal (RPM ratio (pull-down/input)) came to 0.435.
Then “GATGATTGTTCTCCCAGCTGATGAATTGGTTCTCTCGAGTAAACAAATTTTCCTAATCTTTCTGTTCAAGCGCCATCTAC”, with 0.342; and “GATGATTGTTCTCCCAGCTGATGAATTAGCAAGCTCGAGTAAACAAATTTTCCTAATCTTTCTGTTCAAGCGCCATCTAC”, with 0.439.
Turning to “GATGATTGTTCTCCCAGCTGATGAATTATTGAAGTCGAGTAAACAAATTTTCCTAATCTTTCTGTTCAAGCGCCATCTAC”, the binding signal (RPM ratio (pull-down/input)) turned out to be 0.302.
Turning to “GATGATTGTTCTCCCAGCTGATGAATTGAACTAGTCGAGTAAACAAATTTTCCTAATCTTTCTGTTCAAGCGCCATCTAC”, the binding signal (RPM ratio (pull-down/input)) turned out to be 0.25.
In the case of “GATGATTGTTCTCCCAGCTGATGAATTGTGCGTGTCGAGTAAACAAATTTTCCTAATCTTTCTGTTCAAGCGCCATCTAC”, the binding signal (RPM ratio (pull-down/input)) was found to be 6.18.
As to “GATGATTGTTCTCCCAGCTGATGAATTAGTAGTCTCGAGTAAACAAATTTTCCTAATCTTTCTGTTCAAGCGCCATCTAC”, the binding signal (RPM ratio (pull-down/input)) is 2.08.
